# Reference: PubChem BioAssay AID1345083 (National Center for Advancing Translational Sciences (NCATS), 2018)
# Out of some 94,000 compounds screened, about 6,200 (6.6%) were called active. Inconclusive means that the source gave no clear call. Such entries were picked first, then a sample of the others. Calls come from the whole dose curve; as a rule, active = well fitted inhibition curve with a large enough effect; inconclusive = small, poorly fitted or top-dose-only effect; inactive = flat fitted curve, though single readings scatter. Potencies beside an inconclusive call are fits to weak or partial responses and may not hold up.
# Experiment: Cytotoxic Profiling in HEK 293 Cell Line of Diverse Libraries Using Quantitative High-Throughput Screening; note: nearly all actives have a fitted effect of over 60% in size
# Conditions: HEK 293 viability, ATP luminescence (CellTiter-Glo), 48-72 h; series mostly up to 115 µM
# Summary of the method: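 CellTiter-Glo luminescence (cellular ATP) was read after 48 or 72 hr of compound exposure at 37 degree Celsius. Cells were HEK 293 plated at 250 cells/well.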
# Potency is the fitted concentration of half-maximal effect; tags give direction and shape of the fitted curve.
row,SMILES,Potency
1,COc1ccc(-c2cccc(C(=O)N3CCN(C(=O)c4cccnc4)CC3)c2)nn1,"inconclusive: 56.2 µM [inhibitor, partial curve, poor fit]"
2,O=C(c1ccc2cccnc2c1O)N1CCCC(CCc2ccccc2F)C1 (stereo not drawn),"inconclusive: 10 µM [inhibitor, full curve, poor fit]"
3,CNC(=O)CCn1ncc2cc(OC3CCc4cccc(-c5cccnc5OC)c43)ccc21 (stereo not drawn),"inconclusive: 44.7 µM [inhibitor, partial curve, poor fit]"
4,Cn1nccc1CN1CCn2c(nn(-c3ccc(C(F)(F)F)cc3)c2=O)C1,"inconclusive: 31.6 µM [inhibitor, partial curve, poor fit]"
5,O=C(Nc1ccc(Cl)cc1Cl)c1cn2c(n1)CN(C(=O)c1cccnc1)CC2,"inconclusive: 79.4 µM [inhibitor, partial curve, poor fit]"
6,COc1ccc(CN2C(=O)O[C@@H]3CN(S(=O)(=O)N(C)C)C[C@@H]32)cc1OC,inactive
7,N#Cc1cccc(NC(=O)N2CCC3(CCCN(C4CCCC4)C3=O)C2)c1 (stereo not drawn),"inconclusive: 89.1 µM [inhibitor, single point]"
8,O=C(NC1CCCCC1)c1nc2sccn2c1-c1cccc(C(F)(F)F)c1,"inconclusive: 79.4 µM [inhibitor, partial curve, poor fit]"
9,Cc1ccc(C2(C(=O)NC(C)c3cnc(-c4ccncc4)nc3C)CC2)cc1 (stereo not drawn),"inconclusive: 44.7 µM [inhibitor, partial curve, poor fit]"
10,Cc1noc(-c2ccccc2OC2CCN(C(=O)CCC3CCCC3)C2)n1 (stereo not drawn),"inconclusive: 79.4 µM [inhibitor, partial curve, poor fit]"
11,CN(Cc1ccccc1)C(=O)CCNc1c(-c2cccc(F)c2)nc2cnccn12,"inconclusive: 89.1 µM [inhibitor, single point]"
12,CCCc1cc(C(=O)N2CCC(n3nccc3NC(=O)c3ccccc3C)CC2)n(C)n1,"inconclusive: 39.8 µM [inhibitor, partial curve]"
13,O=C(c1ccccn1)N1CCC(n2cc(-c3nc(-c4ccccc4)no3)nn2)CC1,"inconclusive: 89.1 µM [inhibitor, partial curve, poor fit]"
14,CCOC(=O)C1=C(C)N=C2SC=C(CC(=O)Nc3ccc(OC)cc3)N2C1c1cccc(OC)c1 (stereo not drawn),"inconclusive: 50.1 µM [inhibitor, partial curve, poor fit]"
15,O=C(Nc1ccc(F)cc1)c1ccc2nnc(-c3ccc(Cl)cc3)n2c1,"inconclusive: 50.1 µM [inhibitor, partial curve, poor fit]"
16,O=C(c1ccc2nc[nH]c2c1)N1CCC(c2nc(-c3ccccc3)no2)C1 (stereo not drawn),"inconclusive: 35.5 µM [inhibitor, partial curve, poor fit]"
17,COc1ccc(-c2ccnc3nc(-c4cccs4)nn23)cc1OC,"inconclusive: 31.6 µM [inhibitor, partial curve, poor fit]"
18,COc1ccc(CN2CC3(CCN(C(=O)CCCc4ccccc4)CC3)C2=O)cc1,"inconclusive: 50.1 µM [inhibitor, partial curve, poor fit]"
19,O=C(NCCc1ccccc1F)C1CCc2nnc(-c3cccc(C(F)(F)F)c3)n21 (stereo not drawn),inactive

row,SMILES,Potency
1,CS(=O)(=O)N(C1CCOCC1)C1CN(C(=O)CCc2c[nH]c3ccccc23)C1,"inconclusive: 100 µM [inhibitor, single point]"
2,CCOc1ccc(NC(=O)N2[C@@H]3CC[C@H]2CC(NC(=O)c2ccc(F)cc2)C3)cc1 (stereo partly drawn),"inconclusive: 89.1 µM [inhibitor, single point]"
3,Cc1noc(C)c1-c1cc(-c2cccnc2)cn2cncc12,"inconclusive: 89.1 µM [inhibitor, partial curve]"
4,COCc1ccc2c(c1)c(OC(C)(C)C(=O)NC1CCC(O)CC1)nn2Cc1cccnc1 (stereo not drawn),inactive
5,O=c1n(CCN2CCCN([S+](=O)([O-])c3cccs3)CC2)nc2n1CCCC2,inactive
6,COc1ccc(NC(=O)c2ccc3c(c2)N(C)C2CCCCN2C3=O)c(OC)c1 (stereo not drawn),"inconclusive: 50.1 µM [inhibitor, partial curve, poor fit]"
7,C[C@H]1CN(C(=O)Nc2cc(F)cc(F)c2)C[C@@H]1c1nc(-c2ccncc2)no1,"inconclusive: 100 µM [inhibitor, partial curve, poor fit]"
8,COc1ccc(-c2cc(-c3cccc(C(N)=O)c3)cn3cncc23)cc1,"inconclusive: 70.8 µM [inhibitor, partial curve]"
9,CN1CC(=O)N(c2ccc(Cl)cc2)Cc2c1ncnc2N1CCC(Cc2ccccc2)CC1,active: 31.6 µM
10,COc1cccc(C(=O)N2CCC(N(Cc3ccccc3)C3CCOCC3)CC2)c1,"inconclusive: 89.1 µM [inhibitor, partial curve]"
11,Cc1cc(N2CCC(NC(=O)c3ccc4nc[nH]c4c3)C2=O)ccc1F (stereo not drawn),"inconclusive: 100 µM [inhibitor, single point]"
12,COc1ccc(NC(=O)CN2C(=O)NC3(CCC(C(C)(C)C)CC3)C2=O)c(OC)c1 (stereo not drawn),active: 35.5 µM
13,O=C(c1ccc2ccccc2n1)N1CCCC(Cc2noc(C3CC3)n2)C1 (stereo not drawn),"inconclusive: 100 µM [inhibitor, single point]"
14,COc1ccc(N2CC3CCC(C2)N3C(C)=O)cc1,inactive
15,CN1CCC(N2CCN([C@@H]3C[C@H]4C[C@@H](c5ccccc5)OC[C@@]4(C)C3)CC2)CC1,"inconclusive: 89.1 µM [inhibitor, single point]"
16,CC(C)C(NC(=O)c1cn(C2CCC(N)CC2)nn1)c1nc(C2CC2)no1 (stereo not drawn),inactive
17,CCCc1nn(-c2ccccc2C)c(OC(C)=O)c1-c1ccc(NC(=O)CC)cc1,"inconclusive: 89.1 µM [inhibitor, single point]"
18,Cc1ccc(C)c(C(=O)N[C@@H]2CN(Cc3ccccn3)C[C@H]2CN(C)C)c1,active: 79.4 µM
19,Cc1sc2ccn(C)c(=O)c2c1C(=O)NCc1cccc(Br)c1,"inconclusive: 39.8 µM [inhibitor, partial curve, poor fit]"
